# This is one part of the list.
# Assays:
# Assay in all cases: glycan array binding signal (z-score within array); higher = stronger binding
# Conditions in all cases: glycan notation: IUPAC condensed, linker removed; mutation: N224Q
# [1] = target: Fuc(a1-2)Gal(b1-4)GlcNAc(b1-3)Gal(b1-4)GlcNAc(b1-2)Man(a1-3)[Fuc(a1-2)Gal(b1-4)GlcNAc(b1-3)Gal(b1-4)GlcNAc(b1-2)Man(a1-6)]Man(b1-4)GlcNAc(b1-4)GlcNAc
# Summary of the method: (§1)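 Arrays were curated from the Consortium for Functional Glycomics database, 3228 in total, and kept only where the protein sequence was available. Binding is expressed as a within-array Z-score. This score was averaged across arrays of the same protein sequence at different concentrations or buffers and across linkers, and negative values can be read as non-binding.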
# [2] = target: Fuc(a1-2)Gal(b1-4)GlcNAc(b1-3)Gal(b1-4)GlcNAc(b1-3)Gal(b1-4)GlcNAc
# Summary of the method: as §1
# [3] = target: Fuc(a1-2)Gal(b1-4)GlcNAc(b1-3)GalNAc
# Summary of the method: as §1
# [4] = target: Fuc(a1-2)Gal(b1-4)GlcNAc(b1-3)[Fuc(a1-2)Gal(b1-4)GlcNAc(b1-6)]GalNAc
# Summary of the method: as §1
# [5] = target: Fuc(a1-2)Gal(b1-4)GlcNAc(b1-3)[Fuc(a1-3)[Gal(b1-4)]GlcNAc(b1-6)]Gal(b1-4)Glc
# Summary of the method: as §1
# [6] = target: Fuc(a1-2)Gal(b1-4)GlcNAc(b1-6)GalNAc
# Summary of the method: as §1
# [7] = target: Fuc(a1-2)Gal(b1-4)GlcNAc6S
# Summary of the method: as §1
# [8] = target: Fuc(a1-2)Gal(b1-4)[Fuc(a1-3)]GlcNAc
# Summary of the method: as §1
# [9] = target: Fuc(a1-2)Gal(b1-4)[Fuc(a1-3)]GlcNAc(b1-2)Man(a1-3)[Fuc(a1-2)Gal(b1-4)[Fuc(a1-3)]GlcNAc(b1-2)Man(a1-6)]Man(b1-4)GlcNAc(b1-4)[Fuc(a1-6)]GlcNAc
# Summary of the method: as §1
# [10] = target: Fuc(a1-2)Gal(b1-4)[Fuc(a1-3)]GlcNAc(b1-2)[Fuc(a1-2)Gal(b1-4)[Fuc(a1-3)]GlcNAc(b1-4)]Man(a1-3)[Fuc(a1-2)Gal(b1-4)[Fuc(a1-3)]GlcNAc(b1-2)Man(a1-6)]Man(b1-4)GlcNAc(b1-4)GlcNAc
# Summary of the method: as §1
# [11] = target: Fuc(a1-2)Gal(b1-4)[Fuc(a1-3)]GlcNAc(b1-3)Gal(b1-4)[Fuc(a1-3)]GlcNAc
# Summary of the method: as §1
# [12] = target: Fuc(a1-2)Gal(b1-4)[Fuc(a1-3)]GlcNAc(b1-3)Gal(b1-4)[Fuc(a1-3)]GlcNAc(b1-3)Gal(b1-4)[Fuc(a1-3)]GlcNAc
# Summary of the method: as §1
# [13] = target: Fuc(a1-2)Gal(b1-4)[Fuc(a1-3)]GlcNAc(b1-3)GalNAc
# Summary of the method: as §1
# [14] = target: Fuc(a1-2)Gal(b1-4)[Fuc(a1-3)]GlcNAc(b1-3)[Neu5Ac(a2-6)Gal(b1-4)GlcNAc(b1-6)]Gal(b1-4)Glc
# Summary of the method: as §1
# [15] = target: Fuc(a1-2)Gal3S(b1-4)GlcNAc
# Summary of the method: as §1
# [16] = target: Fuc(a1-2)Gal6S(b1-3)GlcNAc
# Summary of the method: as §1
# [17] = target: Fuc(a1-2)Gal6S(b1-3)GlcNAc6S
# Summary of the method: as §1
# Fuc(a1-2)Gal6S(b1-4)Glc = target: Fuc(a1-2)Gal6S(b1-4)Glc
# Summary of the method: as §1
# [18] = target: Fuc(a1-2)Gal6S(b1-4)Glc6S
# Summary of the method: as §1
# Fuc(a1-2)[Gal(a1-3)]Gal = target: Fuc(a1-2)[Gal(a1-3)]Gal
# Summary of the method: as §1
# [19] = target: Fuc(a1-2)[Gal(a1-3)]Gal(b1-3)GalNAc
# Summary of the method: as §1
# [20] = target: Fuc(a1-2)[Gal(a1-3)]Gal(b1-3)GalNAc(b1-3)Gal(a1-4)Gal(b1-4)Glc
# Summary of the method: as §1
# [21] = target: Fuc(a1-2)[Gal(a1-3)]Gal(b1-3)GlcNAc
# Summary of the method: as §1
# [22] = target: Fuc(a1-2)[Gal(a1-3)]Gal(b1-3)GlcNAc(b1-2)Man(a1-3)[Fuc(a1-2)[Gal(a1-3)]Gal(b1-3)GlcNAc(b1-2)Man(a1-6)]Man(b1-4)GlcNAc(b1-4)GlcNAc
# Summary of the method: as §1
# [23] = target: Fuc(a1-2)[Gal(a1-3)]Gal(b1-3)GlcNAc(b1-2)Man(a1-3)[Fuc(a1-2)[Gal(a1-3)]Gal(b1-3)GlcNAc(b1-2)Man(a1-6)]Man(b1-4)GlcNAc(b1-4)[Fuc(a1-6)]GlcNAc
# Summary of the method: as §1
# [24] = target: Fuc(a1-2)[Gal(a1-3)]Gal(b1-3)GlcNAc(b1-3)GalNAc
# Summary of the method: as §1
# [25] = target: Fuc(a1-2)[Gal(a1-3)]Gal(b1-3)GlcNAc(b1-6)GalNAc
# Summary of the method: as §1
# [26] = target: Fuc(a1-2)[Gal(a1-3)]Gal(b1-4)Glc
# Summary of the method: as §1
# [27] = target: Fuc(a1-2)[Gal(a1-3)]Gal(b1-4)GlcNAc
# Summary of the method: as §1
# [28] = target: Fuc(a1-2)[Gal(a1-3)]Gal(b1-4)GlcNAc(b1-2)Man
# Summary of the method: as §1
binder,measurement,setting,value
AAL (Aleuria aurantia) (protein) MPTEFLYTSKIAAISWAATGGRQQRVYFQDLNGKIREAQRGGDNPWTGGSSQNVIGEAKLFSPLAAVTWKSAQGIQIRVYCVNKDNILSEFVYDGSKWITGQLGSVGVKVGSNSKLAALQWGGSESAPPNIRVYYQKSNGSGSSIHEYVWSGKWTAGASFGSTVPGTGIGATAIGPGRLRIYYQATDNKIREHCWDSNSWYVGGFSASASAGVSIAAISWGSTPQIRVYWQKGREELYEAAYGGSWNTPGQIKDASRPTPSLPDTFIAANSSGNIDISVFFQASGVSLQQWQWISGKGWSIGAVVPTGTPAGW,glycan array binding signal (z-score),[1],6.34
same,glycan array binding signal (z-score),[2],2.65
same,glycan array binding signal (z-score),[3],-0.108
same,glycan array binding signal (z-score),[4],0.22
same,glycan array binding signal (z-score),[5],-0.197
same,glycan array binding signal (z-score),[6],2.68
same,glycan array binding signal (z-score),[7],1.08
same,glycan array binding signal (z-score),[8],3.69
same,glycan array binding signal (z-score),[9],1.89
same,glycan array binding signal (z-score),[10],0.004
same,glycan array binding signal (z-score),[11],3.57
same,glycan array binding signal (z-score),[12],3.95
same,glycan array binding signal (z-score),[13],-0.294
same,glycan array binding signal (z-score),[14],-0.308
same,glycan array binding signal (z-score),[15],1.2
same,glycan array binding signal (z-score),[16],-0.079
same,glycan array binding signal (z-score),[17],-0.305
same,glycan array binding signal (z-score),Fuc(a1-2)Gal6S(b1-4)Glc,3.32
same,glycan array binding signal (z-score),[18],1.59
same,glycan array binding signal (z-score),Fuc(a1-2)[Gal(a1-3)]Gal,2.38
same,glycan array binding signal (z-score),[19],-0.302
same,glycan array binding signal (z-score),[20],-0.306
same,glycan array binding signal (z-score),[21],-0.311
same,glycan array binding signal (z-score),[22],-0.289
same,glycan array binding signal (z-score),[23],-0.235
same,glycan array binding signal (z-score),[24],-0.287
same,glycan array binding signal (z-score),[25],-0.305
same,glycan array binding signal (z-score),[26],-0.295
same,glycan array binding signal (z-score),[27],-0.307
same,glycan array binding signal (z-score),[28],-0.285
